# Measurements reported in the supplement of paper PMC3334620.
# The full ranking holds about 33,000 sequences; the median of “E-score (-0.5 to 0.5)” is about -0.056, and the highest 2% start at about 0.38. This is one part of the list.
# Biological target: Stb4 (UniProt P50104)
# Test: PBM E-score (8-mer binding enrichment) (E-score (-0.5 to 0.5)); higher = stronger / more preferred TF binding; most listed sequences are background and not binding sites
# Settings: protein concentration: 200 nM; construct: GST-DNA-binding domain
# Outline: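 Full-length yeast transcription factors or their DNA-binding domains, GST-tagged and expressed with PURExpress, were applied at about 100-200 nM to universal all-10-mer Agilent arrays. These arrays had been made double-stranded by primer extension on fresh or once-stripped slides. Detection used fluorescent anti-GST, normalisation used masliner, and E-scores for ungapped eight-base words pooled with reverse complements came from the Universal PBM Analysis Suite.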
row,Sequence,PBM E-score
1,TCGAGTAA,-0.0675
2,AGGCGCCT,-0.296
3,ATGAGAAG,-0.262
4,ACGCGAGC,-0.00272
5,AGTACGAC,-0.185
6,AGGAGAAG,-0.166
7,AGCCATTC,-0.155
8,CTTGTCAA,-0.0589
9,AATAATAT,0.176
10,CACGTGTA,-0.0718
11,CCACATGG,-0.125
12,GACATCTA,-0.0505
13,AAGTCTGA,-0.33
14,CGAGGCCG,0.202
15,CTAGGGAC,-0.132
16,CACAGAAC,-0.212
17,GTGTCTCA,-0.139
18,CAGCCATA,-0.145
19,AGCTTCGC,-0.276
20,TATTGTGA,-0.161
21,AAAGACTA,0.0612
22,CGTCCTAG,-0.043
23,CCCCATCA,-0.137
24,CAGCTATC,-0.089
25,ATCTAATA,-0.245

row,Sequence,PBM E-score
1,CGTAGATC,0.0274
2,ACTAGACA,-0.0461
3,ATCCCCAT,-0.077
4,ATGTATGC,0.026
5,CCGTACGC,0.126
6,CAAGGGAG,-0.0824
7,GCGGGAGC,0.155
8,AAGCCGGT,0.143
9,GCTGTGCA,-0.116
10,CCCCCCGC,-0.317
11,GGCAGGCC,0.0456
12,GGCCAGCA,-0.0995
13,CAAAGGTG,-0.0692
14,CCCAATCC,0.0104
15,CCATCAGC,-0.107
16,GGAGACAA,0.061
17,CCAGGTTC,-0.067
18,AATCCTAT,0.0532
19,GCGACCCA,-0.00585
20,CTTTCCTC,-0.132
21,AGAGGATA,-0.14
22,CCTGCCAG,-0.253
23,ACGTTCCG,0.398
24,GTTCCGGA,0.435
25,ATGATCCG,0.397

row,Sequence,PBM E-score
1,AGTGGTAC,-0.164
2,AAAACGAC,-0.153
3,ATGCAGCG,-0.0375
4,AGAATAGG,-0.0437
5,GATACTGC,0.0589
6,CACCGGGG,0.0986
7,ATCTGAAA,-0.00451
8,AGACGTCC,-0.0946
9,CCCTGTAG,-0.0785
10,CCCACAAC,-0.171
11,CGGTGGGA,0.1
12,CACTCGCA,-0.0492
13,AAAACTCT,-0.193
14,ATAGGCCA,0.00114
15,AGCGTGCA,0.0521
16,ATTCACTG,-0.187
17,CTAATGGC,-0.14
18,GCTGCTTA,-0.022
19,GACTAACC,-0.066
20,ACATAGTG,0.0377
21,CCGTTTTA,0.195
22,CCAATTGG,-0.214
23,GACAAGTA,-0.0988
24,ACAAACCG,0.209
25,CGCTCGAA,-0.105

row,Sequence,PBM E-score
1,AGGTCCTG,-0.114
2,AGAGCTTC,0.0854
3,AAACCACA,-0.0832
4,ACGAAACG,-0.107
5,TAGATAAA,-0.00785
6,CACTCAAC,-0.11
7,GGTGGATA,0.0727
8,GTATCGTA,-0.237
9,GCCTACGA,0.0698
10,ACCACGCC,0.0296
11,TCGACCGA,0.197
12,CAACCCCC,-0.24
13,CGGCCCGA,0.444
14,CAAGTCCA,-0.306
15,CGAATAAG,0.0389
16,CAACACGA,-0.167
17,AACGCAAG,-0.164
18,ACCGGGCG,0.103
19,CAATTGGA,-0.112
20,ATGGTTTC,0.0176
21,ATGCTAGC,0.113
22,AGTACTGA,-0.0631
23,CAGACCGC,-0.0284
24,ACTATCAG,-0.182
25,AATCAGTC,-0.0412

row,Sequence,PBM E-score
1,CCAAAAAC,0.236
2,AGATCTCG,0.116
3,CACATTCA,-0.0985
4,AAGCAAGA,-0.196
5,ACCATTGA,-0.234
6,CTTATAGA,-0.148
7,GACAATCC,0.206
8,TAAGTCAA,-0.261
9,CTTTATAC,0.186
10,CAGACTCC,-0.108
11,CGCCAGAC,-0.174
12,ACAAGTAA,-0.237
13,GAATACCC,0.341
14,AGATTAGA,-0.228
15,AAGTTCGT,-0.197
16,GAGCTGCA,0.039
17,CCGTCATC,0.158
18,ATGATTCA,-0.198
19,CGCGCCCC,0.176
20,ATGACCTA,-0.112
21,ACTAATCT,-0.0738
22,ACACGATC,0.084
23,CATCCGCC,0.4
24,AGGCTGGA,-0.262
25,CTAAAATC,-0.12

row,Sequence,PBM E-score
1,TGAAATAA,-0.0566
2,GCTTTTAA,0.0126
3,TCGCGAAA,-0.0156
4,CCGCATCG,0.227
5,TACGAGAA,-0.113
6,GTGGTACA,-0.0951
7,CGCGTGAC,-0.0474
8,AACAGGAG,0.00857
9,CGACATCC,0.229
10,AGATTTCC,0.193
11,AAGGCAAA,-0.222
12,ACGTTCTA,-0.282
13,CAACGGGA,0.201
14,ACCGCTTG,-0.0825
15,AGTAGAAT,-0.297
16,CTGGTCTA,-0.0983
17,GCCGACTA,0.166
18,CTGCGCTA,-0.215
19,GCCGGAGA,0.192
20,CCATGACG,-0.0178
21,AGACGAGC,-0.217
22,GCCTCCAA,-0.157
23,AGGGGTGC,-0.196
24,CATCTGAG,-0.123
25,GATAAGCA,0.136

row,Sequence,PBM E-score
1,ACGCAGCA,-0.243
2,AGGCACAC,0.0134
3,CACTGGCC,-0.154
4,CTCCGCAA,0.094
5,CCATTAAA,0.101
6,AGAAGATA,0.055
7,CGTTTATA,-0.0024
8,CTTCCGGC,0.392
9,CCTCGAGG,-0.259
10,CGATACTA,0.081
11,CACTATCG,0.0687
12,TGATGGCA,-0.277
13,ATGATTGC,-0.134
14,AGCTTCGG,0.395
15,CAAAGACC,-0.0254
16,GATGGACA,-0.0273
17,CACCCATA,-0.137
18,GAATCGGC,0.338
19,GTTCAAAA,0.0253
20,CCAGGTTA,-0.135
21,ACACCTCA,-0.205
22,ACCGGCTC,0.204
23,ATAACTAG,-0.123
24,GACGCACA,0.0387
25,ACCCTGAG,-0.122

row,Sequence,PBM E-score
1,CTATGATC,-0.0477
2,TCCGAAAA,0.441
3,ACTCTCGG,0.416
4,ACGTGACC,-0.02
5,GTGAGAGA,-0.2
6,TGCCGCCA,0.202
7,GAAGGAAC,0.123
8,AATCAGAT,-0.0523
9,AAGTCGGA,0.372
10,AACTAGAC,-0.0359
11,CGTATACG,0.241
12,AGCTCGAG,-0.176
13,GAGCGCAC,0.11
14,GTCATATA,-0.0992
15,ATCAGGCC,-0.0274
16,GAATTTCC,0.221
17,GGATATGA,0.235
18,CGGAAGAG,0.351
19,ACCTACGG,0.0352
20,AAAAATAC,0.0542
21,ACAAACTC,0.113
22,CTCTCGAA,-0.356
23,GTGAACTA,-0.156
24,CACTCGAA,-0.267
25,AGGGAGGG,0.109

row,Sequence,PBM E-score
1,GGCTATCA,0.144
2,AGTAGTGA,-0.0831
3,AGAGGGAT,-0.271
4,CTCTACCA,0.0241
5,GCGGACAA,0.126
6,AGTATGCA,-0.176
7,AAGAGTTG,-0.164
8,CAGAGGCG,-0.0504
9,TAGTTACA,-0.0897
10,AAGTGAAT,0.149
11,CAGTCTTC,-0.162
12,GTCCGGAC,0.283
13,CACCCGGC,0.277
14,CTCGCCAG,-0.119
15,AGAATGAC,-0.222
16,ACCTCAGG,-0.28
17,GTTCCAAC,0.0869
18,ACTCGCTG,-0.174
19,ACCAATCG,-0.00773
